The structures appear in SMILES notation. The campaign covered roughly 310,000 compounds. About 14,000 (4.5%) showed an effect of 50% or more. Effects have a minus sign here. The list shows a part of the results.
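Also: peak tail current of the secondary pulse compared with the same well before compound.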

In this assay the target is human ether-à-go-go-related gene (hERG) potassium channel (human, UniProt Q12809). In words: primary screen, population patch clamp on CHO cells stably expressing hERG.
Chain of human ether-à-go-go-related gene (hERG) potassium channel (Q12809 whole entry, looked up): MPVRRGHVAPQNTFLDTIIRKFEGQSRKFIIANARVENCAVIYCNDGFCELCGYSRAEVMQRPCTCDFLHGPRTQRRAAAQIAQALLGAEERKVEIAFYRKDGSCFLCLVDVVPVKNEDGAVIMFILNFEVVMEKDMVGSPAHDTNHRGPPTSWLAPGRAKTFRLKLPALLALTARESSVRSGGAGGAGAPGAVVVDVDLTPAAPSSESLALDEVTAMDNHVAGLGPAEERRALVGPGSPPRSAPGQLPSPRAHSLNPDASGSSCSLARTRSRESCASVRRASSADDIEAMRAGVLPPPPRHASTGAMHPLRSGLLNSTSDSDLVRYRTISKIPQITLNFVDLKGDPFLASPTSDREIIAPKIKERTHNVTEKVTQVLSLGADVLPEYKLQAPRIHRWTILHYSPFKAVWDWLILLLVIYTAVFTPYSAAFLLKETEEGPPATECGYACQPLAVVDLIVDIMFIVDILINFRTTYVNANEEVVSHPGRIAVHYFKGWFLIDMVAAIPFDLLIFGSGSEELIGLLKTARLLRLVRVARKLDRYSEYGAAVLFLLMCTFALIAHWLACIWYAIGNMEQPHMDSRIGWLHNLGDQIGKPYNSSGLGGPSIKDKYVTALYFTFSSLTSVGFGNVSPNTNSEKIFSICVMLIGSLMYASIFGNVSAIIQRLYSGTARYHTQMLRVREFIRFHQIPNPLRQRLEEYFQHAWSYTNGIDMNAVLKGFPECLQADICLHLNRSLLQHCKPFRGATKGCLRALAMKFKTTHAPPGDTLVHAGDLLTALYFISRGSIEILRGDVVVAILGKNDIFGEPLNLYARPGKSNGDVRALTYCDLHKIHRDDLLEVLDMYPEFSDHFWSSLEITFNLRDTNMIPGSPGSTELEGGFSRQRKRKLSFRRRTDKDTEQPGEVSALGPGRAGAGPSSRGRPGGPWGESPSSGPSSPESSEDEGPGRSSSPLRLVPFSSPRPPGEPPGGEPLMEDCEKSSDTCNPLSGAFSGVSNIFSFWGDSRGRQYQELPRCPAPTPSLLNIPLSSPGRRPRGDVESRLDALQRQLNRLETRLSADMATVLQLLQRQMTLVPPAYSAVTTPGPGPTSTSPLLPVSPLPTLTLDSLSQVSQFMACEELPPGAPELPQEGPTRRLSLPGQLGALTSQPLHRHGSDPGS
Regarding `Cc1cc(NC(=O)CCC(=O)N(CC(=O)NC2CCCC2)c2ccc(Cl)c(Cl)c2)no1`, the “hERG current change (%, negative = inhibition) at 10uM” value is on record as -18.2%.

On to `CC(=O)Nc1cccc(NC(=O)CS(=O)(=O)c2cn(CC(=O)N(C(C)C)C(C)C)c3ccccc23)c1`, for which the “hERG current change (%, negative = inhibition) at 10uM” value stood at 15.8%.

As for `COc1cc(C2Sc3ccccc3NC3=C2C(=O)OC3)cc(OC)c1OC` (centres unmarked), the “hERG current change (%, negative = inhibition) at 10uM” value was found to be 0.317%.

As to `COc1ccc(CNC(=O)CSc2nnc(NC(=O)C3CC3)s2)cc1`, the “hERG current change (%, negative = inhibition) at 10uM” value came to 0.952%.

`CCCCCC(=O)N1CC2(CC(c3cccc(NC(=O)CC)c3)=NO2)C[C@H]1C(N)=O` (some centres unmarked): the “hERG current change (%, negative = inhibition) at 10uM” value was -11.6%.

For the molecule `C/C(=C\C(=O)c1cccnc1)Nc1ccc(O)cc1`, the “hERG current change (%, negative = inhibition) at 10uM” value is -6.35%.

Regarding `O=Cc1cccc(OC(=O)/C=C/c2ccco2)c1`, the “hERG current change (%, negative = inhibition) at 10uM” value is reported as 15.5%.

Regarding `O=C(NC1CCCC1)c1ccc(CS(=O)Cc2ccccc2Cl)o1` (centres unmarked), the “hERG current change (%, negative = inhibition) at 10uM” value is -19.9%.

Consider `CCOc1ccccc1NC(=O)CN(c1ccc(OC)cc1)S(=O)(=O)c1c(C)noc1C`, for which the “hERG current change (%, negative = inhibition) at 10uM” value is recorded as -17.9%.

`CCCCCCCCCCCCCCCC[n+]1ccc(C(N)=O)cc1.[Br-]`: the “hERG current change (%, negative = inhibition) at 10uM” value is 10%.

`Cc1cc(NC(=O)CSc2nnc(C3COc4ccccc4O3)n2C)no1` (centres unmarked): the “hERG current change (%, negative = inhibition) at 10uM” value was -1.23%.

As for `COc1ccc(C(=O)NC2CC(C)(C)Cc3occc32)cc1` (centres unmarked), the “hERG current change (%, negative = inhibition) at 10uM” value is recorded as -28.1%.

For the molecule `Cc1cc(C)c(NC(=O)COc2nncc3ccccc23)c(C)c1`, the “hERG current change (%, negative = inhibition) at 10uM” value is on record as 3.48%.

As for `COc1ccc(CN2CCSCC2)c(OC)c1C`, the “hERG current change (%, negative = inhibition) at 10uM” value was 13.5%.

`S=c1[nH]cnc2scc(-c3ccc(Br)cc3)c12`: the “hERG current change (%, negative = inhibition) at 10uM” value was 0.154%.

`O=C(NNC(=O)c1cccs1)c1ccc(Br)o1`: the “hERG current change (%, negative = inhibition) at 10uM” value stood at 15.8%.

With `COCCN(CCOC)Cc1cc(=O)oc2cc3c(cc12)CCC3`, the “hERG current change (%, negative = inhibition) at 10uM” value amounted to 0.484%.

Regarding `O=C(O)/C(=C\c1cccc(C(F)(F)F)c1)c1ccc(S(=O)(=O)N2CCCC2)s1`, the “hERG current change (%, negative = inhibition) at 10uM” value is listed as 5.74%.

As to `COc1cccc(CN2CCNC(=O)C2CC(=O)N(C)CCC2CCOCC2)c1` (centres unmarked), the “hERG current change (%, negative = inhibition) at 10uM” value amounted to 8.75%.

For `O=C(CSc1ccc2c(c1)OCCO2)NCC1CCCO1` (centres unmarked), the “hERG current change (%, negative = inhibition) at 10uM” value was 3.76%.

Turning to `Cc1ccc(N(C(=O)c2ccccn2)C2(C(=O)NC3CCCC3)CCCCC2)cc1`, the “hERG current change (%, negative = inhibition) at 10uM” value stood at 6.1%.

As for `COc1ccc(CCNC(=O)Nc2ccccc2[N+](=O)[O-])cc1`, the “hERG current change (%, negative = inhibition) at 10uM” value is given as -15.2%.

Consider `CCOC(=O)Cc1csc(NC(=O)Nc2cccc(OC)c2)n1`, for which the “hERG current change (%, negative = inhibition) at 10uM” value came to 4.13%.

With `O=S(=O)(NC1CCN(S(=O)(=O)c2c(F)cccc2F)C1)c1ccc2c(c1)OCCO2` (centres unmarked), the “hERG current change (%, negative = inhibition) at 10uM” value was -5.32%.

Turning to `S=C(NCc1ccco1)Nc1cccc(Cl)c1`, the “hERG current change (%, negative = inhibition) at 10uM” value was -6.16%.

As to `CCOc1cc(/C=N/N=C2/NC(=O)C(CC(=O)O)S2)ccc1OCc1ccc(Cl)cc1` (centres unmarked), the “hERG current change (%, negative = inhibition) at 10uM” value is listed as 12.3%.

With `COc1cc(/C=C/C(=O)N[C@@H](Cc2c[nH]c3ccccc23)C(=O)O)ccc1O`, the “hERG current change (%, negative = inhibition) at 10uM” value is 16.5%.

With `COc1ccc(C(C)NC(=S)NC2CCCC2)cc1OC` (centres unmarked), the “hERG current change (%, negative = inhibition) at 10uM” value is 17.8%.

For the molecule `CCc1cccc(NC(=O)CCCn2c(=O)[nH]c3ccsc3c2=O)c1`, the “hERG current change (%, negative = inhibition) at 10uM” value is reported as 32.3%.

With `O=C(CSCc1cc(=O)[nH][nH]1)Nc1ccc(F)cc1`, the “hERG current change (%, negative = inhibition) at 10uM” value worked out at 22.8%.

As to `COC(=O)c1sc2cc(=O)n(-c3cccc(C(F)(F)F)c3)nc2c1O`, the “hERG current change (%, negative = inhibition) at 10uM” value was found to be 5.09%.

Consider `CCN(CC)C(=O)c1sc(NC(=O)c2ccncc2)c(C(=O)OC)c1C`, for which the “hERG current change (%, negative = inhibition) at 10uM” value was -11.7%.

In the case of `O=C(CSc1nc2ccccc2c(=O)n1CC1CCCO1)Nc1ccc(F)cc1` (centres unmarked), the “hERG current change (%, negative = inhibition) at 10uM” value is listed as -12.1%.

Regarding `CN(C(=O)c1ccncc1)C1CCCCC1`, the “hERG current change (%, negative = inhibition) at 10uM” value stood at 18%.

Turning to `COc1cccc(/C=C2/C(=O)NN(c3ccc(F)cc3)C2=O)c1`, the “hERG current change (%, negative = inhibition) at 10uM” value is reported as 8.59%.

On to `CNC(=O)c1c(NC(=O)CCS(=O)(=O)c2ccccc2)sc(C)c1C`, for which the “hERG current change (%, negative = inhibition) at 10uM” value is recorded as 0.0126%.

For the molecule `CNC(=O)NNC(=O)c1csc(Cc2c(Cl)sc3ccc(Cl)cc23)n1`, the “hERG current change (%, negative = inhibition) at 10uM” value is on record as -52.1%.

As to `COC(=O)c1c(C)[nH]c(O)c1C=Nc1ccc(Oc2ccccc2)cc1`, the “hERG current change (%, negative = inhibition) at 10uM” value was 7.17%.

On to `Cc1ccc(S(=O)(=O)NCc2ccc(C(=O)N3CCN(c4ccc([N+](=O)[O-])cc4)CC3)cc2)cc1`, for which the “hERG current change (%, negative = inhibition) at 10uM” value is listed as -70.7%.

Consider `CCCCN1C(=O)c2ccc(C(=O)Nc3ccc(C)c(S(=O)(=O)N(C)C)c3)cc2C1=O`, for which the “hERG current change (%, negative = inhibition) at 10uM” value is reported as -19.1%.

With `C/C(=N\NC(=O)c1nn(C)c(C)c1Br)c1ccc(NC(=O)c2ccccc2F)cc1`, the “hERG current change (%, negative = inhibition) at 10uM” value is 15.4%.

With `Fc1ccccc1C(c1nnnn1Cc1ccc2c(c1)OCO2)N1CCN(Cc2ccccc2)CC1` (centres unmarked), the “hERG current change (%, negative = inhibition) at 10uM” value is given as -55.3%.

For the molecule `Cc1ccc2c(c1)=C/C(=C\c1c(O)[nH]c(=S)[nH]c1=O)C(=O)N=2`, the “hERG current change (%, negative = inhibition) at 10uM” value was 5.06%.

For the molecule `CCc1noc(C)c1C(=O)NNC(=O)c1ccc(N(CC)CC)cc1`, the “hERG current change (%, negative = inhibition) at 10uM” value was -3.19%.

With `O=C(N/N=C/c1ccccn1)c1cc([N+](=O)[O-])cc([N+](=O)[O-])c1`, the “hERG current change (%, negative = inhibition) at 10uM” value was determined as 4.99%.

Consider `Cc1cccc(C(C)C)c1NC(=O)c1ccc(COc2ccc3c(C)cc(=O)oc3c2)cc1`, for which the “hERG current change (%, negative = inhibition) at 10uM” value came out at 12.3%.

As to `CC(Sc1nnnn1C)C(=O)NC1CCCc2ccccc21` (centres unmarked), the “hERG current change (%, negative = inhibition) at 10uM” value is 18.7%.

Take `Cc1nonc1NC(=O)c1oc2ccccc2c1C`: the “hERG current change (%, negative = inhibition) at 10uM” value worked out at 14.6%.

In the case of `C=CCc1cc(Cl)ccc1OCCNCCOC.O=C(O)C(=O)O`, the “hERG current change (%, negative = inhibition) at 10uM” value is given as -43.3%.

With `O=C1CC(N2CCN(c3ccc(C(=O)c4ccc(F)cc4)cc3)CC2)C(=O)N1` (centres unmarked), the “hERG current change (%, negative = inhibition) at 10uM” value was -33.4%.

For the molecule `O=C(Cc1ccc(F)cc1)N(c1ccccc1)C1C=CS(=O)(=O)C1` (centres unmarked), the “hERG current change (%, negative = inhibition) at 10uM” value is -20.6%.

Consider `CCCn1c(SCC(=O)NC2CCCC2)nnc1C(C)C`, for which the “hERG current change (%, negative = inhibition) at 10uM” value amounted to 7.68%.

`COCc1nc2ccccc2n1CCc1ccccc1`: the “hERG current change (%, negative = inhibition) at 10uM” value is -33.6%.

Regarding `Cc1ccc(-n2c(=O)cc(N3CCC(C)CC3)[nH]c2=O)cc1`, the “hERG current change (%, negative = inhibition) at 10uM” value turned out to be 2.19%.

On to `CCc1ccc(C2CC(=O)N3CN(c4ccccc4)CSC3=C2C#N)cc1` (centres unmarked), for which the “hERG current change (%, negative = inhibition) at 10uM” value was 17.4%.

For `Cc1cc(C)n(CC(=O)Nc2ccc(N3CCOCC3)c(Cl)c2)c(=O)c1C#N`, the “hERG current change (%, negative = inhibition) at 10uM” value came to 2.33%.

Values taken from paper PMC4336329 (PLoS ONE, 2015).
